Laboratory results published in the antibiotic and cytotoxicity screens of Wong et al. (2023).
Some of the results follow.

How the values were obtained:
HSkMC = human skeletal muscle cells; test: cytotoxicity call (relative viability < 0.9); details: 10 µM
HepG2 = test: cytotoxicity call (relative viability < 0.9); details: 10 µM
S. aureus RN4220 = test: growth inhibition call (relative growth <= 0.2); details: 50 µM

Row | Structure (SMILES) | cytotoxicity call (HSkMC) | cytotoxicity call (HepG2) | growth inhibition call (S. aureus RN4220)
1 | C[C@@H]1CN([C@@H](C)CO)C(=O)c2cccc(NS(=O)(=O)c3ccc(Cl)cc3)c2O[C@H]1CN(C)S(=O)(=O)c1cn(C)cn1 | inactive | inactive | inactive
2 | CC(C)NC(=O)N(C)C[C@@H]1OCc2cn(nn2)CCCC(=O)N([C@H](C)CO)C[C@H]1C | inactive | inactive | inactive
3 | CCN(CC)C(C)CN1c2ccccc2Sc2ccccc21.Cl (configuration not stated) | inactive | active | inactive
4 | COc1ccc(S(=O)(=O)N(C)C[C@H]2OCc3cn(nn3)CCCC(=O)N([C@@H](C)CO)C[C@H]2C)cc1 | inactive | inactive | inactive
5 | Cc1cc(C(=O)Nc2cccc3c2O[C@@H](CN(C)Cc2ccc(C(=O)O)cc2)[C@H](C)CN([C@@H](C)CO)C3=O)n(C)n1 | inactive | inactive | inactive
6 | COc1cccc(C#Cc2cnc3c(c2)C(=O)N([C@H](C)CO)C[C@H](C)[C@H](CN(C)C(=O)C2CCOCC2)O3)c1 | inactive | inactive | inactive
7 | COc1ccc(CN(C)C[C@H]2OCCCC[C@H](C)Oc3ccc(NS(=O)(=O)c4ccccc4)cc3C(=O)N([C@@H](C)CO)C[C@H]2C)cc1 | inactive | inactive | inactive
8 | COc1ccc(S(=O)(=O)Nc2cccc3c2O[C@H](CN(C)S(=O)(=O)c2ccc(OC)cc2)[C@@H](C)CN([C@@H](C)CO)C3=O)cc1 | inactive | inactive | inactive
9 | COc1ccc(NC(=O)Nc2ccc3c(c2)CC(=O)N([C@H](C)CO)C[C@@H](C)[C@@H](CN(C)C(=O)Nc2ccc(C(F)(F)F)cc2)O3)cc1 | inactive | inactive | inactive
